Holding throughout (experiment): Primary Screen for Target Class Profiling of Small Molecule Inhibitors of Methyltransferases
In test [1] the target is Glycine N-methyltransferase (Homo sapiens) (UniProt Q14749). The following applies: purified enzyme, MTase-Glo SAH luminescence; measured here: GNMT inhibition; at 40 µM; stronger effect = lower value. The procedure, abridged: (§1)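 Each enzyme was reacted with SAM and its substrate, with compounds tested once at 40 uM; SAH formed was read by MTase-Glo luminescence.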
Test [2] has as its target Guanidinoacetate N-methyltransferase (Homo sapiens) (UniProt Q14353). The following applies: purified enzyme, MTase-Glo SAH luminescence; measured here: GAMT inhibition; at 40 µM; stronger effect = lower value. The procedure, abridged: as §1
Test [3] concerns the target Histamine N-methyltransferase (Homo sapiens) (UniProt P50135). To be noted: purified enzyme, MTase-Glo SAH luminescence; measured here: HNMT inhibition; at 40 µM; stronger effect = lower value. The procedure, abridged: as §1
For test [4], the target named is Nicotinamide N-methyltransferase (Homo sapiens) (UniProt P40261). To be noted: purified enzyme, MTase-Glo SAH luminescence; measured here: NNMT inhibition; at 40 µM; stronger effect = lower value. The procedure, abridged:
as §1

Test [5] deals with Phenylethanolamine N-methyltransferase (Homo sapiens) (UniProt P11086). To be noted: purified enzyme, MTase-Glo SAH luminescence; measured here: PNMT inhibition; at 40 µM; stronger effect = lower value. The procedure, abridged: as §1

Where “and” joins values, the source holds several entries; their conditions need not be identical. Equal values may be shown once. The list shows a part of the results. The main result of the screen is listed elsewhere. These columns were measured beside it and carry no call.
On the % scale 0 is the no-effect control and ±100 the full control effect.

Regarding `CN(C)c1cccc(C(=O)NC2CCN(c3cc(-c4cccs4)[nH]n3)C2)c1` (stereo unspecified), the activity change, negative = inhibition was -9.53% in test [1]; -2.66% in test [2]; -1.16% in test [3]; -12.7% in test [4]; -6.47% in test [5].
The corresponding values for `CC1CCN(S(=O)(=O)c2ccc3c(ccn3CC(=O)NCc3ccccc3)c2)CC1` are -2.02%, 4.56%, 0.667%, 2.87% and -2.21%.
The corresponding values for `c1ccc(-c2cnc(Nc3ccc(OCCN4CCCC4)cc3)s2)cc1` are -3.17%, 7.66%, -35.6%, -24.5% and -10.3%.
Take `C=C(F)c1sc(CNCCCNc2cc(=O)c3ccccc3[nH]2)c(C)c1Br`: the activity change, negative = inhibition in test [1] is -0.488%; in test [2], -1.21%; in test [3], -18.9%; in test [4], -51.7%; in test [5], -74.5%.
Take `Cn1c(/C=C/C(=O)NO)ccc1/C=C/C(=O)c1cccc(F)c1`: the values for the activity change, negative = inhibition in test [2], in test [4] and in test [5] were 2.28%, -10.3% and 2.43%, respectively.
As for `Cc1ccccc1CSc1nnc2n(CCCOC(C)C)c(=O)c3cc(Cl)ccc3n12`, the activity change, negative = inhibition in test [1] is 0.411%; in test [2], 0%; in test [3], 4.86%; in test [4], -4.24%; in test [5] it was 4.03%.
Turning to `CC(C)CNC(=O)c1ccc2c(=O)n(C)c3nn(CC(=O)NC4CCCC4)c(=O)n3c2c1`, the activity change, negative = inhibition in test [1] was 8.01%; in test [2] it was 2.61%; in test [3] it was 11.6%; in test [4] it was 5.9%; in test [5], 9.3%.
The corresponding values for `CCOc1ccc(CCNC(=O)CCc2nnc3n(CCc4ccccc4)c(=O)c4ccccc4n23)cc1` are -7.11%, -1.3%, -6.51%, -4.4% and -11.2%.
As for `CC[C@H]1OC(=O)[C@H](C)C(=O)[C@H](C)[C@@H](OC2O[C@H](C)C[C@H](N(C)C)[C@H]2O)[C@@H](C)C[C@@H](C)C(=O)/C=C/[C@]1(C)O` (stereo partly specified), the activity change, negative = inhibition in test [1] is -1.31%; in test [2], -7.27%; in test [3], 1.12%; in test [4], -17%; in test [5] it was 0.205%.
In the case of `F[C@@H]1CN(C2CCC2)C[C@@H]1OCc1nc2ncccc2[nH]1`, the activity change, negative = inhibition in test [1] is -3.03%; in test [2], -5.65%; in test [3], -2.87%; in test [4] it was -11.9%; in test [5] it was -7.68%.
Turning to `CC[C@@H](C)Nc1cc(C(=O)NC2CC3CC[C@@H](C2)N3c2ccc(C(=O)C3CC3)cn2)c(C)cc1C(N)=O` (stereo partly specified), the activity change, negative = inhibition in test [1] is 0.819%; in test [2], -0.559%; in test [3], -1.92%; in test [4], -47.6%; in test [5], -6.82%.
The corresponding values for `O=c1c2ccccc2n2c(-c3ccc(F)c(F)c3)nnc2n1Cc1ccc(F)cc1` are 0.525%, 1.66%, 5.32%, 3.57% and 4.55%.
As for `CCCN1C(=O)c2c(C(=O)NCc3ccc(OC(C)C)cc3)ncn2CC1(C)C(=O)NC1CCCC1` (stereo unspecified), the activity change, negative = inhibition was 1.37% in test [1]; 1.7% in test [2]; 3.1% in test [3]; -0.215% in test [4]; 7.41% in test [5].
For `C/C=C(/C)C(=O)O[C@@H]1C[C@@H](OC(=O)/C(C)=C\C)[C@@]2(C)C3C(=O)C=C(C)C2C3C1(C)C`, the activity change, negative = inhibition was -4.32% in test [1]; -8.67% in test [2]; 6.87% in test [3]; -23.6% in test [4]; -4.45% in test [5].
For the compound `CS(=O)(=O)c1cccc(CNc2nc(Nc3ccc4c(c3)CCC(=O)N4)ncc2C(F)(F)F)c1`, the activity change, negative = inhibition in test [1] is -53.2% and -80.6%; in test [2], -6.15% and -3.7%; in test [3], -4.13% and 0.717%; in test [4] it was -33.3% and -57.8%; in test [5], -7.37% and -2.76%.
Turning to `C[C@@H]1O[C@@H](O[C@@H]2[C@@H](O)[C@H](O[C@@H]3[C@@H](O)[C@@H](O)[C@H](O[C@H]4[C@H](OC(=O)[C@]56CCC(C)(C)C[C@H]5C5=CCC7[C@@]8(C)C[C@H](O)[C@H](O[C@@H]9O[C@H](C(=O)O)[C@@H](O)[C@H](O)[C@H]9O)[C@@](C)(CO)C8[C@H](O)C[C@@]7(C)[C@]5(C)CC6)OC[C@H](O)[C@@H]4O)O[C@H]3C)OC[C@H]2O)[C@H](O)[C@H](O)[C@H]1O` (stereo partly specified), the activity change, negative = inhibition in test [1] was -1.8%; in test [2], 2.93%; in test [3], 3.12%; in test [4], -7.39%; in test [5], 8.86%.
The corresponding values for `COc1cccc(-c2cccc(C(=O)N3C[C@H](CO)C[C@H](CN(C)C)C3)c2)c1` are -8.21%, -8.05%, -85.6%, -12.2% and -4.22%.
Regarding `Cc1onc(-c2ccccc2Cl)c1C(=O)N(C)c1ccc(Cl)cc1`, the activity change, negative = inhibition was 8.1% in test [1]; 3.25% in test [2]; 5.52% in test [3]; -13.2% in test [4]; -2.51% in test [5].
The corresponding values for `CO[C@H]1C[C@@H]2CC[C@@H](C)[C@@](O)(O2)C(=O)C(=O)N2CCCC[C@H]2C(=O)O[C@H]([C@H](C)C[C@H]2CC[C@@H](OP(C)(C)=O)[C@H](OC)C2)CC(=O)[C@H](C)/C=C(\C)[C@@H](O)[C@@H](OC)C(=O)[C@H](C)C[C@H](C)/C=C/C=C/C=C/1C` are -0.678%, 14.5%, 11.6%, 4.38% and 7.38%.
`Cc1ccc(S(=O)(=O)N2CCc3nc(N(C)Cc4cccnc4)[nH]c(=O)c3CC2)cc1`: the activity change, negative = inhibition in test [1] is -5.63%; in test [2] it was -7.12%; in test [3], -3.41%; in test [4], -18.1%; in test [5] it was -11.9%.
As to `CC1(C)CCC(CN2CCN(c3ccc(C(=O)NS(=O)(=O)c4ccc(NCC5CCOCC5)c([N+](=O)[O-])c4)c(Oc4cnc5[nH]ccc5c4)c3)CC2)=C(c2ccc(Cl)cc2)C1`, the activity change, negative = inhibition in test [1] is -4.2%; in test [2] it was -19.6%; in test [3], 4.71%; in test [4], -52.7%; in test [5], -23.7%.
Take `Cc1cccc(N2CCN(C(=O)CCc3nnc4n(Cc5ccc(F)cc5)c(=O)c5ccccc5n34)CC2)c1C`: the activity change, negative = inhibition in test [1] is -1.5%; in test [2], -1.62%; in test [3] it was 0.447%; in test [4], -7.02%; in test [5] it was -3.77%.
The corresponding values for `CCc1noc(-c2cn(C3CCN(C(=O)Cc4cccc(OC)c4)CC3)nn2)n1` are -7.12%, -6.94%, -4.39%, -11.7% and -2.03%.
The corresponding values for `COc1ccc(-c2noc(-c3cccn3CC(=O)NC(C)C)n2)cc1F` are -5.64%, -8.55%, -3.45%, -8% and -7.78%.
Regarding `CC(C)(C)n1nc(-c2ccc(Cl)cc2)c2c(N)ncnc21`, the activity change, negative = inhibition in test [2] is 0.509%; in test [4] it was -35.3%; in test [5], -2.48%.
On to `CCOCCCNC(=O)N1CCn2c(C)ccc2C1C(C)C` (stereo unspecified), for which the activity change, negative = inhibition is 16.4% in test [1]; 0% in test [2]; 0.676% in test [3]; -5.2% in test [4]; 3.22% in test [5].
The corresponding values for `CC1CCCCN1c1nc2c(S(=O)(=O)c3ccccc3)nnn2c2ccc(Cl)cc12` (stereo unspecified) are -8.57%, -0.207%, -7.01%, -5.78% and -9.71%.
The corresponding values for `Cc1ccc(CNS(=O)(=O)c2cc3c(cc2C)n(C)c(=O)n3C)cc1` are 1.77%, 0%, -4.59%, -4.54% and -0.977%.

(Values after PubChem BioAssay AID1745853 (National Center for Advancing Translational Sciences (NCATS), 2022).)
